Data taken from the supplement of paper PMC8728848.
Some of the results follow.

What was measured:
Assay in all cases: glycan array binding signal (z-score within array); higher = stronger binding
Settings in all cases: glycan notation: IUPAC condensed, linker removed
Fuc(a1-2)Gal = target: Fuc(a1-2)Gal
How it was run: (§1)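 The Consortium for Functional Glycomics database supplied 3228 glycan arrays, of which those lacking an available protein sequence were dropped. The binding signal, a within-array Z-score, was averaged across arrays of the same protein sequence and across linkers. Negative scores can be read as non-binding.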

Fuc(a1-2)Gal(b1-3)GalNAc = target: Fuc(a1-2)Gal(b1-3)GalNAc
How it was run: as §1

[1] = target: Fuc(a1-2)Gal(b1-3)GalNAc(a1-3)[Fuc(a1-2)]Gal(b1-4)Glc
How it was run: as §1

[2] = target: Fuc(a1-2)Gal(b1-3)GalNAc(a1-3)[Fuc(a1-2)]Gal(b1-4)GlcNAc
How it was run: as §1

[3] = target: Fuc(a1-2)Gal(b1-3)GalNAc(b1-3)Gal
How it was run: as §1

[4] = target: Fuc(a1-2)Gal(b1-3)GalNAc(b1-3)Gal(a1-4)Gal(b1-4)Glc
How it was run: as §1

[5] = target: Fuc(a1-2)Gal(b1-3)GalNAc(b1-4)[Neu5Ac(a2-3)]Gal(b1-4)Glc
How it was run: as §1

Fuc(a1-2)Gal(b1-3)GlcNAc = target: Fuc(a1-2)Gal(b1-3)GlcNAc
How it was run: as §1

[6] = target: Fuc(a1-2)Gal(b1-3)GlcNAc(b1-2)Man(a1-3)[Fuc(a1-2)Gal(b1-3)GlcNAc(b1-2)Man(a1-6)]Man(b1-4)GlcNAc(b1-4)GlcNAc
How it was run: as §1

[7] = target: Fuc(a1-2)Gal(b1-3)GlcNAc(b1-2)Man(a1-3)[Fuc(a1-2)Gal(b1-3)GlcNAc(b1-2)Man(a1-6)]Man(b1-4)GlcNAc(b1-4)[Fuc(a1-6)]GlcNAc
How it was run: as §1

[8] = target: Fuc(a1-2)Gal(b1-3)GlcNAc(b1-3)Gal(b1-4)Glc
How it was run: as §1

[9] = target: Fuc(a1-2)Gal(b1-3)GlcNAc(b1-3)GalNAc
How it was run: as §1

[10] = target: Fuc(a1-2)Gal(b1-3)GlcNAc(b1-3)[Fuc(a1-2)Gal(b1-3)GlcNAc(b1-6)]GalNAc
How it was run: as §1

[11] = target: Fuc(a1-2)Gal(b1-3)GlcNAc(b1-3)[Gal(b1-4)GlcNAc(b1-6)]Gal(b1-4)Glc
How it was run: as §1

[12] = target: Fuc(a1-2)Gal(b1-3)GlcNAc(b1-3)[Neu5Ac(a2-6)Gal(b1-4)GlcNAc(b1-6)]Gal(b1-4)Glc
How it was run: as §1

[13] = target: Fuc(a1-2)Gal(b1-3)GlcNAc6S
How it was run: as §1

[14] = target: Fuc(a1-2)Gal(b1-3)[Fuc(a1-4)]GlcNAc
How it was run: as §1

[15] = target: Fuc(a1-2)Gal(b1-3)[Fuc(a1-4)]GlcNAc(b1-2)Man(a1-3)[Fuc(a1-2)Gal(b1-3)[Fuc(a1-4)]GlcNAc(b1-2)Man(a1-3)]Man(b1-4)GlcNAc(b1-4)GlcNAc
How it was run: as §1

[16] = target: Fuc(a1-2)Gal(b1-3)[Fuc(a1-4)]GlcNAc(b1-2)Man(a1-3)[Fuc(a1-2)Gal(b1-3)[Fuc(a1-4)]GlcNAc(b1-2)Man(a1-6)]Man(b1-4)GlcNAc(b1-4)[Fuc(a1-6)]GlcNAc(b1-4)[Fuc(a1-6)]GlcNAc
How it was run: as §1

[17] = target: Fuc(a1-2)Gal(b1-3)[Fuc(a1-4)]GlcNAc(b1-3)[Fuc(a1-3)[Gal(b1-4)]GlcNAc(b1-6)]Gal(b1-4)Glc
How it was run: as §1

[18] = target: Fuc(a1-2)Gal(b1-3)[Fuc(a1-4)]GlcNAc(b1-3)[Gal(b1-4)GlcNAc(b1-6)]Gal(b1-4)Glc
How it was run: as §1

Fuc(a1-2)Gal(b1-4)Glc = target: Fuc(a1-2)Gal(b1-4)Glc
How it was run: as §1

Fuc(a1-2)Gal(b1-4)Glc6S = target: Fuc(a1-2)Gal(b1-4)Glc6S
How it was run: as §1

Fuc(a1-2)Gal(b1-4)GlcNAc = target: Fuc(a1-2)Gal(b1-4)GlcNAc
How it was run: as §1

[19] = target: Fuc(a1-2)Gal(b1-4)GlcNAc(b1-2)Man
How it was run: as §1

[20] = target: Fuc(a1-2)Gal(b1-4)GlcNAc(b1-2)Man(a1-3)[Fuc(a1-2)Gal(b1-4)GlcNAc(b1-2)Man(a1-6)]Man(b1-4)GlcNAc(b1-4)GlcNAc
How it was run: as §1

[21] = target: Fuc(a1-2)Gal(b1-4)GlcNAc(b1-2)Man(a1-3)[Fuc(a1-2)Gal(b1-4)GlcNAc(b1-2)Man(a1-6)]Man(b1-4)GlcNAc(b1-4)[Fuc(a1-6)]GlcNAc
How it was run: as §1

[22] = target: Fuc(a1-2)Gal(b1-4)GlcNAc(b1-2)[Fuc(a1-2)Gal(b1-4)GlcNAc(b1-4)]Man(a1-3)[Fuc(a1-2)Gal(b1-4)GlcNAc(b1-2)Man(a1-6)]Man(b1-4)GlcNAc(b1-4)GlcNAc
How it was run: as §1

[23] = target: Fuc(a1-2)Gal(b1-4)GlcNAc(b1-3)Gal(b1-4)GlcNAc
How it was run: as §1

[24] = target: Fuc(a1-2)Gal(b1-4)GlcNAc(b1-3)Gal(b1-4)GlcNAc(b1-2)Man(a1-3)[Fuc(a1-2)Gal(b1-4)GlcNAc(b1-3)Gal(b1-4)GlcNAc(b1-2)Man(a1-6)]Man(b1-4)GlcNAc(b1-4)GlcNAc
How it was run: as §1

[25] = target: Fuc(a1-2)Gal(b1-4)GlcNAc(b1-3)Gal(b1-4)GlcNAc(b1-3)Gal(b1-4)GlcNAc
How it was run: as §1

[26] = target: Fuc(a1-2)Gal(b1-4)GlcNAc(b1-3)GalNAc
How it was run: as §1

[27] = target: Fuc(a1-2)Gal(b1-4)GlcNAc(b1-3)[Fuc(a1-2)Gal(b1-4)GlcNAc(b1-6)]GalNAc
How it was run: as §1

[28] = target: Fuc(a1-2)Gal(b1-4)GlcNAc(b1-3)[Fuc(a1-3)[Gal(b1-4)]GlcNAc(b1-6)]Gal(b1-4)Glc
How it was run: as §1

[29] = target: Fuc(a1-2)Gal(b1-4)GlcNAc(b1-6)GalNAc
How it was run: as §1

[30] = target: Fuc(a1-2)Gal(b1-4)GlcNAc6S
How it was run: as §1

[31] = target: Fuc(a1-2)Gal(b1-4)[Fuc(a1-3)]GlcNAc
How it was run: as §1

B1: PX14343B-bfa-546-20-546 (Bacteroides fragilis) (protein)
chain: CDLERYPLTDLSEETFWNSESNAELALTSLYRGSLTDGVEYNPSDWWSYHGMIMMEHLSDNAFDRRGENNPFFKISSGNLTADNAFIKRYWETSYKRIGYCNRFLVGIQNSSESEKKTRMIAEARFLRATQYFYLASYFKNVPLVENVLTGEEANNVTKTSQADILKWCVTEFTAAAADLPRFSAIPAGEAGRACKQAALAFLGRTCMLQKDWKSGAKAFHDIMELGDNAINANYQELFYPSTGTSNKENIFYIQYLENYLGTGLPQHALSAKDGGWSLVNPAADLYESYEFKDGTPFSYDDPRYDPSNLGKDRDPRLDYTIYYNGAIFMGTEYKMSPDYSAAKKEKLDYTSEASRTGFMMRKYFEESTPINDVQSANGLTPVIRYAEVLLGYLECLVEDNQTITQGILDETINAVRGRASVNMPPVTEVTPAKLREIVRHERRIELAMEGIRYWDIMRWGIAHEVLSQKIWGAPYPGSTQYATTTKEVDPTGNYRWYVGKRAFRNPTDYTWPIPQSEQNINPNLRD
- glycan array binding signal (z-score) (Fuc(a1-2)Gal): -0.114
- glycan array binding signal (z-score) (Fuc(a1-2)Gal(b1-3)GalNAc): -0.122
- glycan array binding signal (z-score) [1]: -0.123
- glycan array binding signal (z-score) [2]: -0.115
- glycan array binding signal (z-score) [3]: -0.117
- glycan array binding signal (z-score) [4]: -0.124
- glycan array binding signal (z-score) [5]: -0.122
- glycan array binding signal (z-score) (Fuc(a1-2)Gal(b1-3)GlcNAc): -0.118
- glycan array binding signal (z-score) [6]: -0.099
- glycan array binding signal (z-score) [7]: -0.078
- glycan array binding signal (z-score) [8]: -0.122
- glycan array binding signal (z-score) [9]: -0.107
- glycan array binding signal (z-score) [10]: -0.126
- glycan array binding signal (z-score) [11]: -0.107
- glycan array binding signal (z-score) [12]: -0.125
- glycan array binding signal (z-score) [13]: -0.12
- glycan array binding signal (z-score) [14]: -0.133
- glycan array binding signal (z-score) [15]: -0.098
- glycan array binding signal (z-score) [16]: -0.114
- glycan array binding signal (z-score) [17]: -0.123
- glycan array binding signal (z-score) [18]: -0.116
- glycan array binding signal (z-score) (Fuc(a1-2)Gal(b1-4)Glc): -0.115
- glycan array binding signal (z-score) (Fuc(a1-2)Gal(b1-4)Glc6S): -0.118
- glycan array binding signal (z-score) (Fuc(a1-2)Gal(b1-4)GlcNAc): -0.121
- glycan array binding signal (z-score) [19]: -0.127
- glycan array binding signal (z-score) [20]: -0.117
- glycan array binding signal (z-score) [21]: -0.108
- glycan array binding signal (z-score) [22]: -0.123
- glycan array binding signal (z-score) [23]: -0.123
- glycan array binding signal (z-score) [24]: -0.107
- glycan array binding signal (z-score) [25]: -0.121
- glycan array binding signal (z-score) [26]: -0.12
- glycan array binding signal (z-score) [27]: -0.124
- glycan array binding signal (z-score) [28]: -0.127
- glycan array binding signal (z-score) [29]: -0.128
- glycan array binding signal (z-score) [30]: -0.116
- glycan array binding signal (z-score) [31]: -0.124
